Source: publication PMC12136788
The other results are listed elsewhere or left out.

T1: UNK ZnF1-3 (human, UniProt Q9C0B0 31-174)
T1 sequence: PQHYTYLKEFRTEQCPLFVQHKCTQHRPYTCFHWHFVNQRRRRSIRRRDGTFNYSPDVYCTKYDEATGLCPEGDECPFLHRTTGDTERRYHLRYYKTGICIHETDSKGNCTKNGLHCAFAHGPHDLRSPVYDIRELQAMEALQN

B1: 86156745_86156865_1897_CDS_ENSMUSG00000020048_ENSMUST00000020238|mouse|control|control (ssRNA)
RNA: GGGAGUUCUACAGUCCGACGAUCACUCUCAUCAAACUUCACCCCUUCUUUGGCAACAUUCUGAAACCUCUUCCCAUCAAACUCGGGAAGAGCCUGAAUGCAGUAUUCAUCCACAGGCUCUGUGAGAUAAAUGACUUCAUAGCCCAACAGAGGAUUGAGCAUCA
B2: chr12:25362807:25362808:-_ENSG00000133703_ENST00000311936|hu_mus|FALSE|FALSE (ssRNA)
RNA: GGGAGUUCUACAGUCCGACGAUCCUUCUUCUUCUUCCCAUCUUUGCUCAUCUUUUCUUUAUGUUUUCGAAUUUCUCGGACUAAUGUAUAGAAGGCAUCGUCAACACCCUGUCUUGUCUUUGCUGAGGUCUCAAUGAACGGAAUCAACAGAGGAUUGAGCAUCA
B3: 46211499_46211619_697_CDS_ENSG00000189079_ENST00000334344|human|control|control (ssRNA)
RNA: GGGAGUUCUACAGUCCGACGAUCUUUUUCAAGUUGCAUGACGUGCUUGCUUUCAUUUGAUAGGAGAGUGCAUACGUUAAUAGCAAAGUCCACUUCAUUUGGGAGUCCAGAUAACAGUGAAAGCACCAAUUUAUUAUAAUCAUUCAACAGAGGAUUGAGCAUCA
B4: chr6:110421769:110421770:-_ENSG00000112290_ENST00000392587|hu_mus|FALSE|FALSE (ssRNA)
RNA: GGGAGUUCUACAGUCCGACGAUCGCUUUCUUACUCCAGCCAGUCUACUUCAUCGAACUCCGAGUCAUCUUCCGAGUCGCUAUACUCCACAGCAAUGCGGCGAGACAGGAUGGUGGCCACGUCGUUUUCAAUCCGCUCGUGUUUCAACAGAGGAUUGAGCAUCA
B5: chr15:50791314:50791315:+_ENSG00000138592_ENST00000307179|hu_mus|FALSE|FALSE (ssRNA)
RNA: GGGAGUUCUACAGUCCGACGAUCAGCGAUCCAUUAUCUUUGUAAGCAUUAGAUGUGAGGCUGCAAUUUGGAGACGUCAAUAAGCCGACAGCCUACUCCUCUCUAUGUGGCUACAUCAGUUAUGCGUGGUCCCAGGGAAGUAUACAACAGAGGAUUGAGCAUCA
B6: chrX:119387588:119387589:+_ENSG00000177485_ENST00000326624|hu_mus|FALSE|FALSE (ssRNA)
RNA: GGGAGUUCUACAGUCCGACGAUCUGAUAUGCUUUUAACCUGUGACAGUGGGACACCAAGCUCUGCUAUAAAUUUCACGCCUAGUAACUGCCCUGAUUUAAUUAACUCGUCAAGCAAAUCUGCUCUAACACGGACAACUUUGGACAACAGAGGAUUGAGCAUCA
B7: 80014724_80014844_1390_CDS_ENSG00000169727_ENST00000578552|human|control|control (ssRNA)
RNA: GGGAGUUCUACAGUCCGACGAUCAUGGAUCUGGUUGCGGAGCACAGCUGCCCGCAGCAUCAUGGCCUUGGCGCGGCGCUGGAACUCCUUGCCCAUCAACAGAGACUUCUCAAAGGUGGUGCUGCGCUGAUCCACGUCCCGGGCCAACAGAGGAUUGAGCAUCA
B8: 33935379_33951508_1111_CDS_ENSG00000006125_ENST00000262325|human|control|control (ssRNA)
RNA: GGGAGUUCUACAGUCCGACGAUCCUUAUUAAUGUUCUGUGGGUUCAGAUCAAGUAAGUUGCUGUUUGGGUGAGACUCACUGAUUUCAGAUAAUGCCGCUACGGCAUUAGCCACCACCAUUGGAUUUGAAUCUGCUAUGAGAUCCAACAGAGGAUUGAGCAUCA
B9: chr16:16324163:16324164:-_ENSMUSG00000022789_ENSMUST00000023477|mus_hu|FALSE|FALSE (ssRNA)
RNA: GGGAGUUCUACAGUCCGACGAUCUCUAAUGGCAGUCAAAAUGUCAAUAGUGUUAAGGCCACCAAGUGGAUCAACAGAUUCUAAGGUUCGCCCAAAAGUCUCAUGGAAAAUAUAACAAAUUCUAGCACCACCGCAUAGCUCCGACAACAGAGGAUUGAGCAUCA
B10: 86533838_86535145_1911_CDS_ENSMUSG00000047126_ENSMUST00000103186|mouse|control|control (ssRNA)
RNA: GGGAGUUCUACAGUCCGACGAUCGAAGGCAGUACAUUGUUGGAUUAGAUUGUAUUCCAUAAAGACAUCCACAAUCUGGGUGAUAUCAGCAAGAGGCUCUUCAUCCUGAACUAACAUUUGAGCAAACUGCUGUCCUUGAUCUGGCAACAGAGGAUUGAGCAUCA
B11: 47166026_47205435_82_CDS_ENSG00000181555_ENST00000409792|human|control|control (ssRNA)
RNA: GGGAGUUCUACAGUCCGACGAUCUUCAAUCUUUGCCUCAUUUUCUUCUUCUUCAGGGGUCGGGUGCUCCGGGUCGUAGAAAUCCCCCAUCUUCGGAGGCGGCUGCGGCUGCAGCUGCUUCAUCGGGAGCGGCUGGAGACGGCGCAACAGAGGAUUGAGCAUCA
B12: chr3:32335226:32335227:+_ENSMUSG00000027665_ENSMUST00000108243|mus_hu|motif|central (ssRNA)
RNA: GGGAGUUCUACAGUCCGACGAUCUGCUUCUUUAAAUAGUUCAUGCUUUAUGGUUAUUAAUGUAGCCUCACGGAGGCAUUCGGAAGUCACUAUCAUUCCAUUUGGUAGUAAACAUUCUACUAGGAUUCUUGGGGGCAUCAAGUGCAACAGAGGAUUGAGCAUCA
B13: chr4:175158712:175158713:-_ENSG00000164117_ENST00000503293|hu_hu|motif|central (ssRNA)
RNA: GGGAGUUCUACAGUCCGACGAUCGCGACGGGUAUUUCGAAUAAAUUCCCUUUUUGACAUUUUAUUCUUCACAUGAGGGCGGGUGAGGUCAAUGGAAAGUAGAAUCAAAGAGUAGCACAGUACAUAGACAGCAUCAGGACUAAGCAACAGAGGAUUGAGCAUCA
B14: 102329212_102330853_5729_CDS_ENSMUSG00000043940_ENSMUST00000053177|mouse|control|control (ssRNA)
RNA: GGGAGUUCUACAGUCCGACGAUCCCGGUUAAUCUCCCUGACCGUGGAUCUCCCUCCGGCACUCCUGCCCACAUUGAAUCCUAACACAGUUCCAAUCUUGUUUGUCAGGACGGAAUCUGUCUGCUCCAGCCAGCCCCCGCCACUCAACAGAGGAUUGAGCAUCA
B15: chr3:169712149:169712150:+_ENSG00000008952_ENST00000337002|hu_mus|motif|central (ssRNA)
RNA: GGGAGUUCUACAGUCCGACGAUCCAAACACAAGAAGAGAAACAGCCUAAAGGAGGAUGAAGACCUAUAUAUCCAUCACCGGCGGACGGCAAAGCAAAACCACCGUGUGACUAAAGGAAAAUCACUCACUGCUCACUGGGGUGUCAACAGAGGAUUGAGCAUCA
B16: chr6:114281168:114281169:-_ENSG00000196591_ENST00000368632|hu_hu|hu_hu_hu_mus_True|18_68 (ssRNA)
RNA: GGGAGUUCUACAGUCCGACGAUCUUCCAUUUUUCGGUAUAAACCAUAAUUUAGCAGCAAGUUAUGAGUCAUGCGGAUUCUAUGAGGCUUCAUGGGAUGACCCUGGCCAUAAUAAUAAUUUCCAAUAUCACCAUCAUAGUAGUACAACAGAGGAUUGAGCAUCA
B17: chr5:21408736:21408737:-_ENSMUSG00000042453_ENSMUST00000161356|mus_hu|mus_mus_mus_hu_False|58_98 (ssRNA)
RNA: GGGAGUUCUACAGUCCGACGAUCGUUGACAGAGUUGUAAAUGGUGGCUUCAUGGAACUGGAAAGGGGAGCAGCCAAUGCUAUUGGAAGAGGAAGGAAGGCACUGGGUCUGUACGAGCUGCCAGGAAUCCGAUCUUGCAUCCUUCAACAGAGGAUUGAGCAUCA
B18: chr12:39756943:39756944:-_ENSG00000139116_ENST00000544797|hu_mus|hu_hu_hu_mus_False|38_38 (ssRNA)
RNA: GGGAGUUCUACAGUCCGACGAUCGGUUUGGCUGUUACCCCCAAGGGAAUCCUGCAAGAGUCUUGUCAGCUUAGAGUCUCUGUAAGGGACAUGGGUGGCCCUCUUGCUCUUGUCCCCCAAGGCGCUGAUUACAUUCCCAAGAGCCAACAGAGGAUUGAGCAUCA
B19: 165712517_165723485_342_3pUTR_ENSG00000143183_ENST00000464650|human|control|control (ssRNA)
RNA: GGGAGUUCUACAGUCCGACGAUCAGGAAGCUUUGCCACCACUCUACCAUCAAAUAUGGAAUUGAACAUUCCCAUUAGGGCAGUAAAACAAAAGCCAAUAGCAAACAUGGAUUUCAUUCGAACCAUUGAUAGAUCUCUGUUGUUCAACAGAGGAUUGAGCAUCA
B20: chr17:55758012:55758013:+_ENSG00000153944_ENST00000284073|hu_hu|motif|central (ssRNA)
RNA: GGGAGUUCUACAGUCCGACGAUCUGUUUUUAAAAAACAUCUUGGGAAAAGCAGUUUUUCAUAUUUUAAAUAAAAAUCGGACGGGACGGUAACAUUUGAAGCUGUGCACAGACAAGAGGUUAAUAGGCUGGUACAACACUAAUACAACAGAGGAUUGAGCAUCA
B21: chr7:151048522:151048523:+_ENSG00000013374_ENST00000566856|hu_mus|hu_hu_hu_mus_True|68_88 (ssRNA)
RNA: GGGAGUUCUACAGUCCGACGAUCCUGUUUCUUAUUUAUUACGAUCUUGAUAUAAUUUUCUUGAAAUCCAAAGGUUUCAGCUAUUUGACACCUCAGGUCUCUACCAGUGACAUGCAAGCGGGUCUCCAACAAGCUUUUCUUAUCCAACAGAGGAUUGAGCAUCA
B22: chr12:105536279:105536280:+_ENSG00000136051_ENST00000332180|hu_mus|hu_hu_hu_mus_True|1_48 (ssRNA)
RNA: GGGAGUUCUACAGUCCGACGAUCAGCACUGAACAUGUAAUGUAAUCUGGCUGCAUCGACAGCAUUUUCAUAUACAUCAUCUAAAUAAAUUGGGAAGACAGCGCGAUGCCAGUAUAAAAAACAGCAGUCACACUGUGUUUGGACCAACAGAGGAUUGAGCAUCA

target: T1, UNK ZnF1-3; experiment: nsRBNS (natural sequence RNA bind-n-seq); RBNS binding buffer (assumed for nsRBNS): 25 mM Tris pH 7.5, 150 mM KCl, 3 mM MgCl2, 0.01% Triton X-100, 500 ug/ml BSA, 20 U/ml SUPERase-In, 4 C; UNK is unkempt and MSI1 is Musashi-1; names of the RNAs are library labels; protein concentration not given here; high values mean tight binding

Binder	binding signal
B1	1.05 enrichment R
B2	0.537 enrichment R
B3	1.08 enrichment R
B4	0.691 enrichment R
B5	1.03 enrichment R
B6	1.1 enrichment R
B7	1.06 enrichment R
B8	0.904 enrichment R
B9	1.51 enrichment R
B10	0.871 enrichment R
B11	1.49 enrichment R
B12	1.1 enrichment R
B13	2.2 enrichment R
B14	0.729 enrichment R
B15	1.75 enrichment R
B16	0.964 enrichment R
B17	1.65 enrichment R
B18	0.772 enrichment R
B19	1.29 enrichment R
B20	2.11 enrichment R
B21	0.933 enrichment R
B22	1.71 enrichment R
